# The list shows a part of the results.
# Test system: PF3D7_0420300 AP2 domain 1 (GST-tagged)
# Assay: gcPBM binding intensity (ln(normalized median fluorescence intensity)); higher = stronger DNA binding
# Procedure, shortened: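 After 1 h on an Agilent 4 × 180k array of primer-extended double-stranded 36-bp intergenic genomic probes and negative controls, bound GST-tagged P. falciparum DNA-binding domains were detected with Alexa488 anti-GST antibody and scanned at 488 nm. The domains had been expressed in E. coli, and binding took place in 1× PBS with 1% milk, 0.2 mg/ml BSA, 0.5% salmon testes DNA and 0.03% Triton X-100. Binding intensity is the highest Masliner-normalised natural-log median intensity across replicate spots of either probe orientation.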
row,Sequence,gcPBM binding intensity (ln)
1,TATATATATAAATACACACACACAAAAAAAAAAAAA [CACACA_site4930],10.1
2,AATTTAATTGTGAGAGTGCGTACTGCTCCACATATA,9.05
3,ATGTGTTTGTATATATGTACATATTTATGTTATTTC [XGTACX_site6960],9.76
4,AAAAAAAAAAAAAAAAAAAAAAAAAAATGAGATACA [GTGCAC_negctrl_site160],9.13
5,TTTTGATATATGAATATTAAGTTATATAATATTTTA [TGCATGCA_negctrl_site39],8.95
6,TAGTTACCTTAATATTGTACTTTTCTTTCATATATG [XGTACX_site1309],9.39
7,CACTAAATAAGGAAAGTGCATAAAATAAAGGTTATA [GTGCAC_site9793],9.31
8,ATAGTTTCTGGTAGCTGTACGAGTCGTAGAGTGCAG [XGTACX_site2022],9.18
9,GTGTCAAATTTTATAACACACAAAAGGTTATATAAG [CACACA_site7839],9.28
10,ATTTAAAAAATATATTGTACATATTTTATTATGTTT [XGTACX_site2984],9.23
11,TACAGTTTTTCTTTGAATTTATCAAGTTTTTTTCCC [XGTACX_negctrl_site60],9.08
12,TAGTTAGCCCAAGGGGTGCTAATTACTATCTAAATA,8.84
13,TTTATAAATATTCTCACACACTTTTTATTTTAACAA [CACACA_site6454],9.33
14,AACACCAATTCATATGCACACACATCTGCATATTAT [CACACA_site8523],9.86
15,TATAGAAGCAAATTATGTACACAATATGGAAAATCA [XGTACX_site3345],9.46
16,GTCGAGGATATATAAAGTACATATATATATATGATA [XGTACX_site1128],9.25
17,TAATGTATCTAAAATTGTACAAATATAAATATAAAT [XGTACX_site2764],9.19
18,CACAAACAAAAACACACACACACACCGACAAAAATG [CACACA_site5362],10
19,TATAAATATTTATACACACACACATTAATACCTATA [CACACA_site7604],10.1
20,AAAAGAAGATAATACAGTACAGAATAATATAAAATA [XGTACX_site5962],9.54
21,AGAAAGAAGATATATACACACAAAAAAAGATATATA [CACACA_site6779],9.81
22,TTCTTTCTAGAATATTGTACATATATTGTTATTATA [XGTACX_site8425],9.27
23,AAATAAAATAAATAATATAAAATAATATATAAAAAA [CACACA_negctrl_site1777],9.42

row,Sequence,gcPBM binding intensity (ln)
1,TTTTGTTAAAAAGATGTATATTTTATAAATATTTAT [CACACA_negctrl_site101],8.92
2,AAAAAAAAATTGTGTACACATAATTATATCATATGT [CACACA_site4500],9.3
3,ATGGATAATAAGTTTACACACAAAAAAAAAGAAAAA [CACACA_site861],9.77
4,ATAAGAATCATATTTAAACACACATACATATATATA [CACACA_site9106],9.64
5,TTTTTATTGGTGAATACACACGTATATATATATTAT [CACACA_site8756],9.49
6,ATTAAATAAACCATTACACACTTTTATGTTTTGAAA [CACACA_site1143],9.3
7,ATTATATTAACAATGACATGCAATTCTTAATCCTTA [TGCATGCA_site648],9.06
8,AAAAAAAAAAAATACACACACATAAAAAAAAAAATA [CACACA_site1858],10
9,AAAAAAAAACAAAAAAGTACAAAATAAAAATACGTT [XGTACX_site4566],9.52
10,CTCTTCATATATAATTGTACACACAAAAACGACATT [XGTACX_site4287],9.66
11,TATATATATTTTGGCTGTACATCAGCGTATATTTTT [XGTACX_site3233],9.17
12,AATAAATATATACATTGTACATATATAATATATATA [XGTACX_site1458],9.14
13,TAAATTATAATATGCACACAAAATGTTATATTAAAA [CACACA_site376],8.97
14,CCTATCCATGCATATACACACATATCTATTTATATA [CACACA_site6886],9.78
15,AATATATTGTTTCCTGATATTAAATTCAATTTAATG [GTGCAC_negctrl_site22],9.11
16,TAAAGAGAGACATCAACACACATACGTATGTATAGA [CACACA_site4896],9.52
17,ATTTACCTATATATTTGTACTTACATAATGCTACCT [XGTACX_site2693],9.63
18,TAAAAAAAAATATATAAACACACATATTTATATACA [CACACA_site8469],9.36
19,CCAATGTTTTCTTGTGTACACATCATTAAAGAAAAA [CACACA_site5300],9.02
20,ATTCTATATGAAAAATGTACAAATAAAAATTCTAAG [XGTACX_site8900],9.09
21,CATGAAAATATTATGTGTACTTAATGCACATTCAAA [XGTACX_site1952],9.07
22,CACGCATACAGACACACACACACACCGATATATATA [CACACA_site8113],10.3
23,ATGAATAAATAAGACACACACGAAAATAAGTAAAAA [CACACA_site4216],10.1

row,Sequence,gcPBM binding intensity (ln)
1,TATTTTGATTATTCAGTGTATAAATATATATATATA [CACACA_negctrl_site545],9.17
2,CATATATACGCATACACACACACACCCACACCCACA [CACACA_site1725],10.2
3,TACAAATATATATGCACACACATATACATACAGATA [CACACA_site5238],9.77
4,TGATGAAAATCTACATGAATGTTTTTATATCTATAT [GTGCAC_negctrl_site139],9.14
5,TATTTATACCTATACACACACACACGGATATTTATA [CACACA_site7123],10.2
6,GATAAAATCACTGGTGCATGTAGATATATAATATTA [TGCATGCA_site589],9.26
7,AATTAACAAAAACACACACACACACCGACAAAAAAA [CACACA_site4444],10.3
8,ATATGCTTATTGTAAAGTACATTATTATTTTTCCTA [XGTACX_site5479],9.33
9,AAAAAAAAATTAAAATGTACACATAAAAAAAAAAAA [XGTACX_site794],9.35
10,AAAAATAAATAAATATGTACATATATACATATATAT [XGTACX_site5892],9.16
11,TTTTATATGTTATATACACACATATAAATAAATATA [CACACA_site7418],9.2
12,AACAGGTCATAATTTACACACTATATATTTTATTAT [CACACA_site670],9.66
13,TAACATATGGGACACACATGCAACTGTTATATGTCC [TGCATGCA_site959],9.47
14,AGAAAACATATGTTTTGTACTTAAGAAAAAAAAAAA [XGTACX_site4231],8.97
15,TGATTAATTTTTAAATGTACTTAAAAATATACTTAT [XGTACX_site2872],8.88
16,ATCTATATTCATAATACACACATTCTGTAGCATTAT [CACACA_site7058],9.55
17,TATATCATATAAAACCGTACATACATACTTAATTGT [XGTACX_site6822],9.49
18,AGGAGGATAGTTCACAGTACCCAGGAAATCTGCGGA [XGTACX_site4928],9.16
19,TATGCAATAAAATATACACACAATATACTTATATAT [CACACA_site7691],9.69
20,TTTATTTTCCAAAGGGTGCACATAGTTAAAACGATA [GTGCAC_site9855],9.16
21,ATAAATATACCAATCGGTACACATTTATACAAACAA [XGTACX_site7484],9.41
22,AGAATAAATATGTGGTGTTATAGTATTAATGTTAAT [TGCATGCA_negctrl_site62],9.39
23,AATAAATACACATACACACACGACGCTAGTATATGT [CACACA_site6627],9.87

row,Sequence,gcPBM binding intensity (ln)
1,GCTATAAATATAATCACACATAAATATATAATATAT [CACACA_site5144],9.22
2,GAATATTAAATATTATCACACACATAATTATTTCCA [CACACA_site8730],9.47
3,ATATATATTTATAATCGTACGTACCTAACAATACAA [XGTACX_site4510],9.19
4,AAATAAAAAAAAGCCTGTACATGTTCATAAATTTTT [XGTACX_site7925],9.2
5,TCCTTATTTCATATTTTTAAATAATACAAAAAAAAA [CACACA_negctrl_site773],8.75
6,TTCTATTTATATGTGGGTACTAATTTTTTTTCTTTT [XGTACX_site7104],9.58
7,CTTAAATTAATTTGGGTGCATATATTTGTACACATT [GTGCAC_site9948],9.22
8,TGAATAAAATATTATACACACATATGTATATAACAT [CACACA_site974],9.31
9,TTAATTTTTTTTTAAACACACATTTTTTTATTTAAG [CACACA_site2738],9.17
10,TATTAATTTTTTTTTTTTTTTTTTTTTTTTTTTTTT [CACACA_negctrl_site1329],9.27
11,GTTATAAATAATAAATAAATAATCAAATGAAGAATG [CACACA_negctrl_site653],9.4
12,TATATAAACCCACCTACACACACAACGTAAATGCAT [CACACA_site8702],9.89
13,ATTATTATATTCAAATGTACTTAATAAACATTTTAA [XGTACX_site3023],8.88
14,TTTATCTAAATATGTGTGCACTCGTTAATTTTTTTT,9.45
15,TAAAGAATATTATAAACACACACTTTATAAAGAATT [CACACA_site114],9.61
16,TGTTGATTTATCCTGTGTACGGATATATATCTTTCA [XGTACX_site7826],9.27
17,TATATAAAGAAACACACACACACCTTATAATTATTA [CACACA_site4062],10
18,GTAATTATACATATTACACACTCTCTTGATCTTTTT [CACACA_site7756],9.51
19,AGAAAAAAATAATCATCACACACGGAGAATGTCCAA [CACACA_site2314],9.72
20,GAAAATAACTAAAATTGTACAAAGAAACATATATTT [XGTACX_site6484],9.35

# — the supplement of paper PMC11417369
